Test results: PubChem BioAssay AID743279 (National Center for Advancing Translational Sciences (NCATS), 2014)
About 17,000 (4.7%) of roughly 360,000 compounds were called active. The inconclusive results got no clear call from the source; some entries with a clear call stand among them for comparison. Cut-off read from the data, not from the text of the source: active = activity change below about -50%; inconclusive = mostly about -30% to -49%; inactive = weaker than that.

Experiment: qHTS for Inhibitors of Inflammasome Signaling: IL-1-beta AlphaLISA Primary Screen
Conditions: THP-1 LPS/ATP IL-1B secretion, 16 h; at 57.5 µM, hits give low values
In short: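 THP-1 cells pretreated 1 hr with compounds (up to 57.5 uM final), then stimulated with LPS (250 ng/mL final) plus ATP (1.25 mM final); secreted IL-1B measured by AlphaLISA after 16 hr, decreased signal indicating inhibition.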
% is set by controls: 0 for no effect and ±100 for the full control effect.

| SMILES | activity change |
| --- | --- |
| O=c1ccn(C2CCCO2)c(=O)[nH]1 (stereo unspecified) | inactive: -0.635% |
| Cc1ccc(C)c(NC(=O)N2CCc3ccccc3C2)c1 | inconclusive: -44% |
| COc1cc2c(cc1OC)C(=O)CC(C)S2 (stereo unspecified) | inactive: -23% |
| Cc1ccc(N/N=C/c2ccncc2)cc1 | inconclusive: -34.9% |
| COC(CNC(=O)c1ccc2c(c1)ncn2-c1cc(C)cc(C)c1)OC | inconclusive: -33.8% |
| O=C(CSCc1ccc(Cl)cc1)Nc1cc([N+](=O)[O-])ccc1O | inconclusive: -41.6% |
| c1csc(C2Nc3ccccc3-c3nc4ccccc4n32)c1 (stereo unspecified) | inconclusive: -46.6% |
| Cc1ccc(O)c(CN(C)Cc2cc(C)ccc2O)c1 | inconclusive: -33.3% |
| COc1ccc(C=C2SC(=S)NC2=O)c(OC)c1OC | inconclusive: -34.9% |
| Cc1[nH]c(-c2ccc(F)cc2)cc1C(=O)N1CCN(c2ccccc2F)CC1 | inconclusive: -31.3% |
| CN(CC(=O)Nc1ccccc1Cl)C(=O)CSC(=S)N1CCCC1 | inactive: 1.77% |
| O=C(O)CCn1cc(/C=C/C(=O)c2ccc(Cl)cc2)c(-c2cccc(Br)c2)n1 | active: -96.6% |
| Cc1ccccc1-n1ncc2c1CC(C)(C)CC2NC(=O)CCN1Cc2ccccc2C1=O (stereo unspecified) | inconclusive: -40.4% |
| Cc1ccc(OCCCCN2CCc3ccccc3C2)c(C)c1 | inconclusive: -48.8% |
| O=C(c1ccco1)N1CCN(Cc2cccc(F)c2)CC1 | inconclusive: -49.1% |
| O=C(CCc1nnc(CCc2ccccc2)o1)N1CCCC1c1nccs1 (stereo unspecified) | inactive: -8.86% |
| Cn1c(CCN2CCCC2)nc2cc(NS(=O)(=O)c3ccc(Cl)cc3)ccc21 | active: -85.8% |
| Cc1ccc(-n2c(C)cc(C(=O)COC(=O)C3=NNC(=O)CC3)c2C)cc1 | inactive: 4.53% |
| Cc1ccc2nsnc2c1S(=O)(=O)N1CCN(Cc2ccc3c(c2)OCO3)CC1 | inactive: -26.9% |
| Cc1c(NC(=O)COC(=O)/C=C/c2ccccc2Br)c(=O)n(-c2ccccc2)n1C | inconclusive: -38.1% |
| Cc1c(C)c2cc(Cl)c(OCC(=O)NCCCn3ccnc3)cc2oc1=O | inconclusive: -43.5% |
| Cc1ccc(CC2SC(=O)NC2=O)cc1Cl (stereo unspecified) | inactive: 1.11% |
| COC1CCN(Cc2cn(Cc3ccccc3)nc2-c2cc3ccccc3o2)CC1 | inconclusive: -36.6% |
| O=C(c1cccc(S(=O)(=O)N2CCc3ccccc32)c1)N1CCc2ccccc2C1 | inconclusive: -37.6% |
| O=C(CN1C2=NCCN2c2ccccc21)c1ccc2c(c1)OCO2 | active: -81.3% |
| COc1ccc(/C(=C/Nc2cccc(Br)c2)C(C)=O)cc1OC | active: -84.5% |
